{
  "source": "the supplement of paper PMC12355420",
  "settings_in_all_cases": "50 µM; 24 h",
  "key": {"[1]": {"system": "HeLa VPS33A reporter cells", "assay": "relative cell viability (CellMask signal) vs DMSO (fraction of DMSO); higher = less cytotoxic"}, "[2]": {"system": "HeLa VPS33A R498W KI + HA-SDC1-FLAG", "assay": "relative GAG core protein HA-SDC1 amount per cell number vs DMSO (fraction of DMSO); higher = more SDC1 (GAG core protein)"}, "[3]": {"system": "HeLa VPS33A KO + NLuc-VPS33A R498W", "assay": "relative mutant VPS33A R498W amount (NanoLuc luminescence) vs DMSO (fraction of DMSO); HeLa model of a glycosaminoglycan (GAG) storage disease; KI is knock-in and KO knock-out; SDC1 is syndecan 1; higher = higher mutant VPS33A level"}},
  "note": "The other results are listed elsewhere or left out. No stated cut-off is given here; in the data, active = 0.5 or less and inactive = the rest. Single values are uncertain, as repeats are few or missing.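 Wherever relative GAG core protein HA-SDC1 amount per cell number vs DMSO is given: HA-SDC1 level read out by In-Cell Western staining with an anti-HA antibody against the N-terminal tag, screening FDA-approved library drugs.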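 Wherever relative cell viability (CellMask signal) vs DMSO is given: primary screen of an FDA-approved drug library in HeLa reporter cells in 96-well format, CellMask signal normalized to DMSO-treated wells set as 1, under 0.5 deemed highly cytotoxic.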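 Wherever relative mutant VPS33A R498W amount (NanoLuc luminescence) vs DMSO is given: screen of an FDA-approved drug library, NanoLuc luminescence read after lysing the treated cells, taken as a measure of mutant VPS33A protein stability.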",
  "data": [
    {"molecule": "COc1cc([C@@H]2c3cc4c(cc3[C@H](O)[C@H]3COC(=O)[C@H]23)OCO4)cc(OC)c1OC", "note": "[Podophyllotoxin]", "values": [
      {"measurement": "relative cell viability", "setting": "[1]", "value": 1.02},
      {"measurement": "relative GAG core protein HA-SDC1 amount per cell number", "setting": "[2]", "value": "inactive: 0.643"},
      {"measurement": "relative mutant VPS33A R498W amount", "setting": "[3]", "value": 0.495}
    ]},
    {"molecule": "Oc1cc(Cl)ccc1Oc1ccc(Cl)cc1Cl", "note": "[Triclosan]", "values": [
      {"measurement": "relative cell viability", "setting": "[1]", "value": 0.00733}
    ]},
    {"molecule": "NCCCNCCSP(=O)(O)O", "note": "[Amifostine]", "values": [
      {"measurement": "relative cell viability", "setting": "[1]", "value": 0.932},
      {"measurement": "relative GAG core protein HA-SDC1 amount per cell number", "setting": "[2]", "value": "inactive: 1.12"},
      {"measurement": "relative mutant VPS33A R498W amount", "setting": "[3]", "value": 0.979}
    ]},
    {"molecule": "N[C@@H](Cc1ccc(N(CCCl)CCCl)cc1)C(=O)O", "note": "[Melphalan]", "values": [
      {"measurement": "relative cell viability", "setting": "[1]", "value": 0.00523}
    ]},
    {"molecule": "CC[C@@H](C(=O)[C@@H](C)[C@@H](O)[C@H](C)[C@@H]1O[C@@H]([C@@H](CC)C(=O)O)CC[C@@H]1C)[C@H]1O[C@]2(C=C[C@@H](O)[C@]3(CC[C@@](C)([C@H]4CC[C@](O)(CC)[C@H](C)O4)O3)O2)[C@H](C)C[C@@H]1C", "note": "[Salinomycin]", "values": [
      {"measurement": "relative cell viability", "setting": "[1]", "value": 0.00453}
    ]},
    {"molecule": "O=C1C=CC(=O)C=C1", "note": "[1,4-Benzoquinone]", "values": [
      {"measurement": "relative cell viability", "setting": "[1]", "value": 0.00597}
    ]},
    {"molecule": "[O-][n+]1ccccc1[S-].[O-][n+]1ccccc1[S-].[Zn+2]", "note": "[Zinc Pyrithione]", "values": [
      {"measurement": "relative cell viability", "setting": "[1]", "value": 0.00887}
    ]},
    {"molecule": "COc1cc([C@@H]2c3cc4c(cc3[C@H](O)[C@H]3COC(=O)[C@@H]23)OCO4)cc(OC)c1OC", "values": [
      {"measurement": "relative cell viability", "setting": "[1]", "value": 0.146}
    ]},
    {"molecule": "COc1ccc2c(c1)[nH]c1c(C)nccc12", "note": "[Harmine]", "values": [
      {"measurement": "relative cell viability", "setting": "[1]", "value": 0.243}
    ]},
    {"molecule": "O=c1cccc2n1C[C@@H]1CNC[C@H]2C1", "note": "[Cytisine]", "values": [
      {"measurement": "relative cell viability", "setting": "[1]", "value": 1.13},
      {"measurement": "relative GAG core protein HA-SDC1 amount per cell number", "setting": "[2]", "value": "inactive: 0.994"},
      {"measurement": "relative mutant VPS33A R498W amount", "setting": "[3]", "value": 1.35}
    ]},
    {"molecule": "NC(=O)CN1CC(c2ccccc2)CC1=O", "note": "(stereo unspecified) [Phenylpiracetam]", "values": [
      {"measurement": "relative cell viability", "setting": "[1]", "value": 0.0834}
    ]},
    {"molecule": "Cc1cc(C(C#N)c2ccc(Cl)cc2)c(Cl)cc1NC(=O)c1cc(I)cc(I)c1O", "note": "(stereo unspecified) [Closantel]", "values": [
      {"measurement": "relative cell viability", "setting": "[1]", "value": 0.00862}
    ]},
    {"molecule": "CN1[C@@H]2CC(O)C[C@H]1[C@@H]1O[C@@H]12", "note": "(stereo partly specified) [Scopine]", "values": [
      {"measurement": "relative cell viability", "setting": "[1]", "value": 1.24},
      {"measurement": "relative GAG core protein HA-SDC1 amount per cell number", "setting": "[2]", "value": "inactive: 1.1"},
      {"measurement": "relative mutant VPS33A R498W amount", "setting": "[3]", "value": 1.34}
    ]}
  ]
}
